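Each compound was tested at five concentrations against cells in 96-well plates for 48 hours. TGI marks complete inhibition of growth.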 A number of entries come with more than one value. Only these are listed. There may be further records. The tests behind the records often covered other concentration ranges, which the source does not state; a value can be the end of its range.
Experiments:
Test in all cases: NCI tumour cell line growth inhibition, 48 h
NCI-H23 lung = test system: NCI-H23 lung
SK-MEL-28 melanoma = test system: SK-MEL-28 melanoma
OVCAR-5 ovarian = test system: OVCAR-5 ovarian
SNB-19 CNS = test system: SNB-19 CNS
HCT-15 colon = test system: HCT-15 colon
HL-60(TB) leukemia = test system: HL-60(TB) leukemia
HOP-62 NSCLC = test system: HOP-62 NSCLC
EKVX NSCLC = test system: EKVX NSCLC
OVCAR-8 ovarian = test system: OVCAR-8 ovarian
CAKI-1 renal = test system: CAKI-1 renal
SW-620 colon = test system: SW-620 colon
A549 NSCLC = test system: A549 NSCLC
HT29 colon = test system: HT29 colon
MCF7 breast = test system: MCF7 breast

**Q.** Which results are given for `C[C@]12CC[C@@H]3c4ccc(OC(=O)N(CCCl)CCCl)cc4CC[C@H]3[C@@H]1CC[C@@H]2O`?
**A.** TGI (NCI-H23 lung): 12.4 µM and 251 nM; TGI (SK-MEL-28 melanoma): 18.8 µM and 259 nM; TGI (OVCAR-5 ovarian): 39.4 µM and 2.81 µM; TGI (SNB-19 CNS): 37.3 µM and 3.36 µM; TGI (HCT-15 colon): 12.3 µM and 335 nM; TGI (HL-60(TB) leukemia): 3.47 µM and 251 nM; TGI (HOP-62 NSCLC): 13 µM and 406 nM; TGI (EKVX NSCLC): > 62.5 µM and 3.47 µM; TGI (OVCAR-8 ovarian): 22.5 µM and 180 nM; TGI (CAKI-1 renal): 12.9 µM and 371 nM; TGI (SW-620 colon): 16.6 µM and 1.38 µM; TGI (A549 NSCLC): 16.6 µM and 269 nM; TGI (HT29 colon): 10.2 µM and 53.6 nM; TGI (MCF7 breast): 30.5 µM and 265 nM

Reference: PubChem BioAssay (NCI)
